Measurements: PubChem BioAssay AID1457 (National Center for Advancing Translational Sciences (NCATS), 2008)
Among all 210,000 compounds or so, about 730 (0.35%) were called active. The inconclusive results got no clear call from the source; some entries with a clear call stand among them for comparison. Calls come from the whole dose curve; as a rule, active = well fitted inhibition curve with a large enough effect; inconclusive = small, poorly fitted or top-dose-only effect; inactive = no such curve, though single readings can be large or run the other way. Where the call is inconclusive, the potency comes from a doubtful curve fit.

Test: qHTS Assay for Identifying the Cell-Membrane Permeable IMPase Inhibitors: Potentiation with Lithium; note: nearly all actives have a fitted effect of over 50% in size
Details: CHO-M1 cells, IP1 TR-FRET (IP-One), carbachol + lithium; series mostly up to 59.4 µM
Method in brief: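 Concentration–response in CHO-M1 cells, lithium-potentiated; 30 min at 37C. IP1 detected by competitive TR-FRET after 10 min lysis at RT. Hill-fitted AC50.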
Potency is the fitted concentration of half-maximal effect.

SMILES | Potency
CC1CN(S(=O)(=O)c2ccc(C(=O)Nc3nc(-c4cc5ccccc5o4)cs3)cc2)CC(C)O1 (centres undefined) | inconclusive: 28.2 µM [inhibitor, single point]
O=C(CCc1ccccc1)NN1C(=O)C2C3C=CC(O3)C2C1=O (centres undefined) | inactive
Cc1ccc(C(=O)Nc2sc3c(c2C(=O)O)CCCCC3)o1 | inconclusive: 11.2 µM [inhibitor, partial curve]
CCOC(=O)Nc1nc(C)c(C(=O)c2ccc(Cl)cc2)s1 | inconclusive: 28.2 µM [inhibitor, single point]
COc1cccc2c1C(=O)c1c(O)c3c(c(O)c1C2=O)C[C@](O)(C(C)=O)C[C@H]3O[C@@H]1C[C@H](N)[C@H](O)[C@H](C)O1 | inactive
COC(=O)c1cc(Cl)c(NC(=O)c2ccc(F)cc2)cc1OC | inconclusive: 28.2 µM [inhibitor, single point]
O=C(N/N=C/c1cc2c3c(c1O)CCCN3CCC2)c1ccccc1O | inactive
Cc1cc(NC(=O)CSc2nc3c(cc2C#N)CCCCC3)no1 | inconclusive: 14.1 µM [inhibitor, single point]
CC(=O)N(CCc1ccccc1C)Cc1cc2cc3c(cc2[nH]c1=O)OCO3 | inconclusive: 28.2 µM [inhibitor, single point]
CN(C)c1ncc2nc(-c3ccccc3)c(=O)n(-c3ccccc3)c2n1 | inconclusive: 11.2 µM [inhibitor, single point]
Cn1c(=O)oc2cc(S(=O)(=O)NCc3ccccn3)ccc21 | inconclusive: 28.2 µM [inhibitor, single point]
O=C(O)c1ccccc1C(=O)N(Cc1ccccc1)Cc1ccccc1 | inactive
CC1(C)CC(=O)N(CC(=O)O)c2ccccc2S1(=O)=O | inconclusive: 12.6 µM [inhibitor, partial curve, poor fit]
CC(=O)c1cn(-c2ccc(Cl)cc2)c(=O)n(Cc2ccc(Br)cc2)c1=O | inconclusive: 28.2 µM [inhibitor, single point]
COc1cccc(-c2nc(NCC3CCCO3)c3ccccc3n2)c1O (centres undefined) | active: 14.1 µM
COc1ccc(-n2c(N)c(C(=O)NCc3cccnc3)sc2=S)cc1 | inconclusive: 5.62 µM [inhibitor, partial curve]
O=C(Nc1ccsc1C(=O)NC1CCCCC1)c1ccc(F)cc1 | active: 28.2 µM
CN1C(=O)N(C)c2ccc(C=O)c3cccc1c23 | inconclusive: 17.8 µM [inhibitor, single point]
COC(=O)CSc1nc(-c2ccccc2)cc(-c2ccco2)c1C#N | inconclusive: 28.2 µM [inhibitor, single point]
COCCn1c(SCC(=O)Nc2ccc(C)cc2)nc2c(oc3ccccc32)c1=O | inconclusive: 28.2 µM [inhibitor, single point]
COc1ccc(Cn2c(=O)[nH]c3cc(C(=O)NCCCN4CCCCC4)ccc3c2=O)cc1 | inactive
COc1cc(OC)cc(C(=O)Nc2nnc(Cc3ccc(OC)c(OC)c3)s2)c1 | inconclusive: 22.4 µM [inhibitor, single point]

SMILES | Potency
Cc1nn(Cc2ccccc2)c(C)c1NC(=O)CSc1nc(-c2ccccc2)nc2c1cnn2-c1ccccc1 | inconclusive: 3.55 µM [inhibitor, partial curve, poor fit]
O=C(OCCN1C(=O)c2ccccc2C1=O)c1cc2ccccc2o1 | inactive
Brc1ccc(Sc2cnc3ccccc3n2)cc1 | inconclusive: 12.6 µM [inhibitor, partial curve]
Nc1ccc(-c2nc3ccc(N)cc3o2)cc1 | inconclusive: 3.55 µM [inhibitor, partial curve]
CCOC(=O)c1ccccc1NC(=O)Cn1cnc2c(oc3ccccc32)c1=O | inconclusive: 11.2 µM [inhibitor, partial curve]
CCn1c(SCC(=O)Nc2cccc(F)c2)nnc1-c1cc2cc(Br)ccc2o1 | inconclusive: 28.2 µM [inhibitor, single point]
c1ccc2c(c1)nnn2Cc1nnc2sc(-c3ccc4c(c3)OCCO4)nn12 | inconclusive: 12.6 µM [inhibitor, single point]
CCc1c(C(=O)Nc2ccccc2)c(C)[nH]c(=S)c1C#N | inconclusive: 31.6 µM [inhibitor, partial curve, poor fit]
COc1cc(/C=C2/SC(=S)N(CC(=O)Nc3nc4ccccc4s3)C2=O)cc(OC)c1OC | inconclusive: 0.501 µM [inhibitor, partial curve, poor fit]
Cc1ccc2c3c(c(SCC(=O)Nc4nonc4C)nc2c1)CCCC3 | inconclusive: 12.6 µM [inhibitor, single point]
Cc1ccccc1NC(=O)c1cc(S(=O)(=O)N2CCCCC2)cs1 | inconclusive: 28.2 µM [inhibitor, single point]
Cc1ccc(S(=O)(=O)Nc2cccc3cccnc23)cc1 | inactive
FC(F)(F)c1nc2nc(Cl)c(Cl)nc2n1CCCN1CCOCC1 | inactive
Cc1ccc(C)c(NC(=S)N2CCN(CCO)CC2)c1 | inactive
C/C(CC(=O)NC1CCCCC1)=N\NC(=O)COc1ccc(C)cc1Br | inconclusive: 3.55 µM [inhibitor, full curve, poor fit]
c1ccc(N2N=C(c3cccs3)CC2c2ccco2)cc1 (centres undefined) | inconclusive: 31.6 µM [inhibitor, single point]
O=C(CSc1nnc(Cc2ccccc2)o1)N1CCc2ccccc21 | inactive
Cc1cccc(C(=O)NC(=S)N2CCc3ccccc3C2)c1 | inactive
CCOc1ncccc1C(=O)Nc1ccccc1C(=O)NCc1ccc2c(c1)OCO2 | inconclusive: 25.1 µM [inhibitor, single point]
CCSc1nc2c(cnn2-c2ccc(C)c(C)c2)c(=O)[nH]1 | inconclusive: 8.91 µM [inhibitor, partial curve]
CCN(CC)S(=O)(=O)c1cccc2cc(C(=O)O)c(O)cc12 | inconclusive: 12.6 µM [inhibitor, partial curve]
COc1cccc(C(=O)N=c2sc3c(C)ccc(OC)c3n2C)c1 | inconclusive: 5.01 µM [inhibitor, single point]
